Measured values published in PubChem BioAssay AID1963576 (National Center for Advancing Translational Sciences (NCATS), 2024).
Out of some 46,000 compounds screened, about 60 (0.1%) were called active. Roughly 3% stayed inconclusive and do not appear here. Calls come from the whole dose curve; as a rule, active = well fitted inhibition curve with a large enough effect; inconclusive = small, poorly fitted or top-dose-only effect; inactive = no such curve, though single readings can be large or run the other way. The list shows a part of the results.

Assay: Primary qHTS assay for Inhibitors of ovarian cancer metastasis using an organotypic tumor microenvironment (TME) model.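 For activity change, negative = inhibition: plate controls were DMSO wells for no effect and tomatine positive control wells for full effect.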 Note: nearly all actives have a fitted effect of over 65% in size.
Settings: SKOV3ip1-GFP adhesion/invasion on 3D omental model, fluorescence; series mostly up to 45.8 µM; activity change, negative = inhibition: at the top concentration
Procedure, shortened: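 qHTS, 4-pt dose (0.36-46 umol/L); SKOV3ip1-GFP, 1,200 cells/well, no FBS; primary omental fibroblast/mesothelial co-culture 48 h pre-grown; 2 h RT + 16 h 37 C; PBS wash, 4% PFA; GFP count 488/509 nm.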

Activity change, negative = inhibition, inactive:
COc1ccccc1NC(=O)CSc1oc(-c2ccccc2)nc1S(=O)(=O)c1ccccc1 0.255%
Cc1cc2c(n1-c1ccc(C(=O)NCc3ccc(OC(C)C)cc3)cc1)CCCC2 -21.5%
COc1cc(-c2oc3ccc(C)cc3c(=O)c2O)cc(OC)c1OC 4.04%
Cc1ccc(Sc2c(C)nn(C(=O)c3ccc(Br)cc3)c2C)cc1 1.57%
CCc1cccc(C)c1NC(=O)c1ccc2c(c1)CCN2S(=O)(=O)CC -0.432%
COc1ccc(OC)c(NC(=O)Cn2c(=O)n(Cc3nc(C)no3)c(=O)c3ccccc32)c1 11.6%
COc1ccc(Cl)cc1NC(=O)NCCc1c(C)nn(C)c1C -3.02%
COc1ccc(N2CCN(C(=O)C(C)n3c(=O)cc(C(F)(F)F)c4c(C)nn(C)c43)CC2)cc1 (stereo not given) -10.2%
COc1ccccc1CNS(=O)(=O)c1ccc2c(c1)CC(C)N2C(=O)C1CCC1 (stereo not given) -3.63%
Cc1ccc(S(=O)(=O)c2nc(-c3ccco3)oc2SCc2ccc(F)cc2)cc1 4.03%
COc1ccc(-c2cc(C)no2)cc1S(=O)(=O)NC1CCC(C)CC1 (stereo not given) 5.43%
Cn1cnc(S(=O)(=O)N2CCCC(C(=O)NCc3ccccc3)C2)c1 (stereo not given) -1.18%
CCOc1ccc(NC(=O)c2cc(C)nc3c2c(C)nn3-c2cccc(F)c2)cc1 -2.87%
Cc1ccc(NC(=O)C2CCCN2S(=O)(=O)c2ccc3c(c2)C(C)(C)C(=O)N3C)cc1 (stereo not given) -6.45%
Nc1nc(F)nc2c1ncn2[C@@H]1O[C@H](CO)[C@@H](O)[C@@H]1O -7.23%
COc1cccc(NC(=O)c2c(N3CCCC3=O)c3cc(C)ccc3n2C)c1 -17.2%
O=C(NCCS(=O)(=O)N1CCN(c2ccccc2F)CC1)C1CC(=O)N(c2ccccc2)C1 (stereo not given) -9.67%
Cc1c(OCC(F)(F)F)ccnc1CS(=O)c1nc2ccccc2[nH]1 (stereo not given) 0.249%
COc1ccc(S(=O)(=O)NCCc2sc3nc(-c4ccc(C)cc4)nn3c2C)cc1F -5.94%
O=C(CSc1nc2ccccc2nc1Cc1ccccc1)Nc1ccccc1C(F)(F)F 7.96%
CCCCN(Cc1ccccc1)S(=O)(=O)c1cc(Br)cc2c1N(C(C)=O)CC2 0.781%
CCOc1ccc(CCNC(=O)c2cccc(-n3c(C)nc4cccnc43)c2C)cc1 9.96%
CCc1ccccc1NC(=O)C(CC)Oc1ccccc1-c1nnc(-c2ccccc2)o1 (stereo not given) 4.43%
O=C(Nc1ccc(C(=O)OCc2cc(=O)n3nc(C4CC4)sc3n2)cc1)c1cccc(Cl)c1 5.31%
CCOCCCNC(=O)c1cc(=O)[nH]c2ccc(S(=O)(=O)N3CCCC3)cc12 69.3%
CCCCCn1c(=O)[nH]c2cc(C(=O)N3CCN(c4cccc(OC)c4)CC3)ccc2c1=O 81.8%
COc1ccc(-c2nc3c(c(SCC(=O)Nc4ccccc4OC)n2)Cc2cccc(C)c2O3)cc1 9.75%
Cc1ccc(-n2c(=O)c3oc4ccccc4c3n(CC(=O)Nc3ccc(F)c(Cl)c3)c2=O)cc1C -9.44%
Cc1cc(C)cc(OCc2cc(=O)n3c4c(sc3n2)CCCC4)c1 -16%
CC(C)Oc1ccc(CNC(=O)C2CCCCN2S(=O)(=O)c2ccc(F)cc2)cc1 (stereo not given) 4.23%
CCC(C)NC(=O)Cc1ccc(NC(=O)N2CCCCc3ccccc32)cc1 (stereo not given) -4.89%
Cc1ccc(-c2nc(CS(=O)CC(=O)N3CCN(c4ccc(F)cc4)CC3)c(C)o2)cc1 (stereo not given) -4.87%
O=C(Nc1ccccc1F)C1CCN(S(=O)(=O)c2ccc3c(c2)CCCN3C(=O)C2CCC2)CC1 13.8%
CCCCN(C)C(=O)c1ccc2c(c1)N(Cc1ccc(F)cc1)C(=O)c1ccccc1S2(=O)=O -3.47%
CC(=O)N1CCOc2cc(S(=O)(=O)Nc3c(C)cccc3C(C)C)c(Cl)cc21 1.51%
Cc1scc(CN2CCN(c3ccc(F)cc3)CC2)c1C -5.58%
COC(=O)c1sccc1S(=O)(=O)N1CCN(c2ccc(Cl)cc2)CC1 3.76%
CC1=C(c2ccc(Cl)cc2)S(=O)(=O)N=C1N1CCC(C(=O)NCCc2ccco2)CC1 -0.741%
COc1ccc(Br)cc1CNC(=O)CCc1cn(Cc2ccc(C)cc2)c2ccccc12 0.972%
O=C(CCCn1c(=O)c2sccc2n(Cc2ccc(Cl)cc2)c1=O)NCc1ccc2c(c1)OCO2 -21.5%
Cc1ccc(CNc2ncccc2-c2nc(-c3ccc(Cl)cc3)no2)cc1 -13.1%
N#CC(=C1Nc2ccccc2S1)c1ccnc(OCc2ccc(CN3CCOCC3)cc2)n1 -4.68%
CC(=O)OCC(=O)[C@@]12N=C(C)O[C@H]1C[C@H]1[C@@H]3CCC4=CC(=O)C=C[C@]4(C)[C@@H]3[C@@H](O)C[C@@]12C 17.1%
CC(C)CC(NC(=O)C1CCCCC1)C(=O)Nc1cccc(C(F)(F)F)c1 (stereo not given) 7.62%
Cc1ccc(-c2nc(S(=O)(=O)c3ccccc3)c(SCC(=O)NC3CCCCC3)o2)cc1 1.11%
Cc1ccc(Cl)cc1NC(=O)c1cc(CN2CCCC2)on1 3.06%
COc1ccc(CCNC(=O)CCc2cn(Cc3ccc(F)cc3)c3ccccc23)cc1OC -25.1%
Cc1ccc(Cl)cc1N1CCN(C(=O)c2nn(C)c3c2CS(=O)(=O)c2ccccc2-3)CC1 -0.358%
O=C(NC1CC1)c1ccc(Cn2c(SCc3ccc(F)cc3)nc3cccnc32)cc1 -1.82%
COc1ccc(-c2cc(C(F)(F)F)nc(SCCC(=O)Nc3cccc(OC)c3)n2)cc1 -7.86%
CCc1ccc(NC(=O)c2ccc(NS(=O)(=O)c3c(C)noc3C)cc2)cc1 0.923%
CCCOc1ccc(C(=O)Nc2ccc(-c3cc4ccccc4oc3=O)c(C)c2)cc1 3.64%
O=c1cc(CSc2ccccc2)[nH]c2ccc(F)cc12 2.11%
CCCNc1ncnc2c1c(-c1ccccc1)cn2-c1ccc(OCC)cc1 -24.2%
CCc1ccc(CNC(=O)c2sc3nc[nH]c(=O)c3c2C)cc1 29.4%
O=C(COc1ccc(F)cc1)Nc1ccc(S(=O)(=O)N(Cc2ccccc2)c2ccccc2)cc1 -4.32%
CCN(C(=O)Cc1c(C(=O)O)c(C)cn1C)c1cccc(Cl)c1 3.1%
COc1ccc(OC)c(CNc2ncnc3c2nc2n3CCCC2)c1 6.33%
CCc1ccc(Nc2nnc(-c3cc4cc(OC)ccc4oc3=O)s2)cc1 0.697%
CC(=O)Nc1ccc(Nc2c(CCC(C)C)c(C)c(C#N)c3nc4ccccc4n23)cc1 0.693%
COc1cc(NC(=O)C(NS(=O)(=O)c2ccc3c(c2)CCCC(=O)N3)C(C)C)cc(OC)c1 (stereo not given) 126%
Cc1ccc(NC(=O)c2sc3nc(-c4ccncc4)ccc3c2N)cc1 1.32%
CCOc1ccc(S(=O)(=O)c2c(C(=O)c3ccc(C)c(C)c3)cnc3ccccc23)cc1 3.96%
COC(=O)c1sccc1S(=O)(=O)N(CC(=O)Nc1ccc(C)c(F)c1)c1ccc(C)c(C)c1 3.29%
Cc1ccccc1C(=O)Nc1nnc(S(=O)(=O)N(C)c2ccc(Cl)cc2)s1 8.65%
COc1ccc(-c2cc(C(F)(F)F)n3nc(C(=O)Nc4sc5c(c4C(=O)OC(C)C)CCC(C)C5)cc3n2)cc1 (stereo not given) -11.9%

outcome, inactive:
COc1ccc(Nc2ncnc3onc(C)c23)c(OC)c1
O=C(CSC1=Nc2ccccc2N=C(c2ccc(F)cc2)C1)Nc1ccc(Cl)cc1
CC(=O)Nc1ccc(NC(=O)c2cc(-c3cccs3)on2)cc1
CC1(C(=O)NC2CCCCC2)Cc2ccccc2C(=O)N1Cc1ccc(F)cc1 (stereo not given)
Cc1cccc(N2CCN(C(=O)Cn3ncc4c([nH]c5ccccc54)c3=O)CC2C)c1 (stereo not given)
CCOc1ccc(CNC(=O)c2cnc3sc(N(CC)CC)nn3c2=O)cc1
CCOC(=O)CCCN1C(=O)CCn2nc(-c3cn(C)c4ccccc34)cc21
CCCCC(=O)Nc1c(C(=O)N2CCN(c3ccccc3)CC2)oc2ccccc12
CCOc1ccc(CNC(=O)c2cccn2-c2nnc(N3CCCCC3)s2)cc1OC
CCCSc1ncc(Cl)c(C(=O)Nc2scc(-c3ccc(C)cc3)c2C(=O)OCC)n1
O=C1CC(c2ccc(Cl)cc2)c2cc3c(cc2N1)OCCO3 (stereo not given)
CCc1cccc(C)c1NC(=O)C1CCN(S(=O)(=O)c2cccc3nonc23)CC1
COc1ccc(C(=O)Nc2c(C(=O)c3ccc(F)cc3)oc3ccccc23)cc1
O=C(CS(=O)(=O)c1cccc2nsnc12)Nc1ccc(F)cc1F
N#Cc1ccccc1NC(=O)C(=O)NCC(c1ccc2c(c1)OCO2)N1CCOCC1 (stereo not given)
CC(C)CCNC(=O)c1c2c(nc3ccccc13)C(=O)N(C1CCCCC1)C2
CCOC(=O)c1ccccc1NC(=O)c1cc2c(s1)-c1ccccc1SC2
COc1ccccc1N1CCN(S(=O)(=O)CCNC(=O)COc2ccccc2F)CC1
CC(C)c1ccc(NC(=O)CN2C(=O)CSc3ccc(S(=O)(=O)N4CCCC4)cc32)cc1
CCc1cccc(C)c1NC(=O)c1cc(S(=O)(=O)N2CCCCCC2)cn1C
Cc1cccc(N2CCN(C(=O)c3cccn3-c3nnc(N4CCCCC4)s3)CC2)c1C
COc1ccc(-c2cc(C(C)=O)c(C)n2CCC(=O)Nc2ccc(C)c(Cl)c2)cc1
COc1ccc(NC(=O)CCn2c(-c3ccc(F)cc3)cc(C(C)=O)c2C)c(OC)c1
CCc1c(C)nc(SCc2nc(-c3ccccc3C)no2)[nH]c1=O
Cc1ccc(CNC(=O)CCc2nnc3n(C)c(=O)c4sccc4n23)cc1
Cc1ccccc1Cn1c(=O)n(CCc2ccccc2)c(=O)c2sc3ccccc3c21
CCCN(CCC)C(=O)C1CCCN(S(=O)(=O)c2cc(Br)cc3c2N(C(=O)CC)CC3)C1 (stereo not given)
O=C(Nc1ccc(-c2nc3cc(NC(=O)c4ccc(Cl)cc4)ccc3o2)cc1)c1ccc(Cl)cc1
CC(=O)Nc1ccc(NC(=O)C(c2ccccc2)N2Cc3ccccc3C2=O)cc1 (stereo not given)
